{"sequences": {"note": "The chains behind the UniProt entries cited, without tags or fusion partners. Where a name states a change or a piece, a line headed by the entry shows the natural chain unless it says otherwise.", "UniProt P36405": "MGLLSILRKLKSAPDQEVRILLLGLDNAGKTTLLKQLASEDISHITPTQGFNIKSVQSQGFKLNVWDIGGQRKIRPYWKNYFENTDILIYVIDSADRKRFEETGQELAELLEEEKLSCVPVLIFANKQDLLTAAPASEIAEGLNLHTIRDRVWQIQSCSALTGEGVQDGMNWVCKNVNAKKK", "UniProt P36404": "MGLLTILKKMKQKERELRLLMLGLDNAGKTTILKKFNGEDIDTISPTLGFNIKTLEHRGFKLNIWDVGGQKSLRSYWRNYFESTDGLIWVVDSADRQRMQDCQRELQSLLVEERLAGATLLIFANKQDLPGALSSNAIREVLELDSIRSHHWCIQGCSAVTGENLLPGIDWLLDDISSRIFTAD"}, "source": "paper PMC11373600", "molecules": {"B1": {"name": "GFP-HsDAW1 (protein, UniProt Q8N136 1-415)", "chain": "MKLKSLLLRYYPPGIMLEYEKHGELKTKSIDLLDLGPSTDVSALVEEIQKAEPLLTASRTEQVKLLIQRLQEKLGQNSNHTFYLFKVLKAHILPLTNVALNKSGSCFITGSYDRTCKLWDTASGEELNTLEGHRNVVYAIAFNNPYGDKIATGSFDKTCKLWSVETGKCYHTFRGHTAEIVCLSFNPQSTLVATGSMDTTAKLWDIQNGEEVYTLRGHSAEIISLSFNTSGDRIITGSFDHTVVVWDADTGRKVNILIGHCAEISSASFNWDCSLILTGSMDKTCKLWDATNGKCVATLTGHDDEILDSCFDYTGKLIATASADGTARIFSAATRKCIAKLEGHEGEISKISFNPQGNHLLTGSSDKTARIWDAQTGQCLQVLEGHTDEIFSCAFNYKGNIVITGSKDNTCRIWR"}, "B2": {"name": "3×HA-HsIFT88 (protein, UniProt Q13099 1-824)", "chain": "MMQNVHLAPETDEDDLYSGYNDYNPIYDIEELENDAAFQQAVRTSHGRRPPITAKISSTAVTRPIATGYGSKTSLASSIGRPMTGAIQDGVTRPMTAVRAAGFTKAALRGSAFDPLSQSRGPASPLEAKKKDSPEEKIKQLEKEVNELVEESCIANSCGDLKLALEKAKDAGRKERVLVRQREQVTTPENINLDLTYSVLFNLASQYSVNEMYAEALNTYQVIVKNKMFSNAGILKMNMGNIYLKQRNYSKAIKFYRMALDQVPSVNKQMRIKIMQNIGVTFIQAGQYSDAINSYEHIMSMAPNLKAGYNLTICYFAIGDREKMKKAFQKLITVPLEIDEDKYISPSDDPHTNLVTEAIKNDHLRQMERERKAMAEKYIMTSAKLIAPVIETSFAAGYDWCVEVVKASQYVELANDLEINKAVTYLRQKDYNQAVEILKVLEKKDSRVKSAAATNLSALYYMGKDFAQASSYADIAVNSDRYNPAALTNKGNTVFANGDYEKAAEFYKEALRNDSSCTEALYNIGLTYEKLNRLDEALDCFLKLHAILRNSAEVLYQIANIYELMENPSQAIEWLMQVVSVIPTDPQVLSKLGELYDREGDKSQAFQYYYESYRYFPCNIEVIEWLGAYYIDTQFWEKAIQYFERASLIQPTQVKWQLMVASCFRRSGNYQKALDTYKDTHRKFPENVECLRFLVRLCTDLGLKDAQEYARKLKRLEKMKEIREQRIKSGRDGSGGSRGKREGSASGDSGQNYSASSKGERLSARLRALPGTNEPYESSSNKEIDASYVDPLGPQIERPKTAAKKRIDEDDFADEELGDDLLPE"}}, "key": {"[1]": {"biological_target": "T1, GFP-HsDAW1(S364T) (human) (UniProt Q8N136)", "T1 sequence": "B1 chain with S364T", "test": "co-IP; GFP-HsDAW1 or its disease variants coexpressed with HA-HsIFT88, HsARL2-HA or HsARL3-HA in HEK293T; GFP-Trap; 1% NP-40 lysis buffer diluted to 0.5%; 90 min at 4°C"}, "GFP-HsDAW1 (human) [2]": {"biological_target": "T2, GFP-HsDAW1 (human) (UniProt Q8N136)", "T2 sequence": "B1 chain", "test": "co-IP; GFP-HsDAW1 or its disease variants coexpressed with HA-HsIFT88, HsARL2-HA or HsARL3-HA in HEK293T; GFP-Trap; 1% NP-40 lysis buffer diluted to 0.5%; 90 min at 4°C"}, "[3]": {"biological_target": "T3, GFP-HsDAW1(W372C) (human) (UniProt Q8N136)", "T3 sequence": "B1 chain with W372C", "test": "co-IP; GFP-HsDAW1 or its disease variants coexpressed with HA-HsIFT88, HsARL2-HA or HsARL3-HA in HEK293T; GFP-Trap; 1% NP-40 lysis buffer diluted to 0.5%; 90 min at 4°C"}, "HsARL3-3×HA (human)": {"biological_target": "HsARL3-3×HA (human) (UniProt P36405)", "test": "co-IP; HA-tagged HsARL2 or HsARL3 variants coexpressed with GFP-HsDAW1 in HEK293T; anti-HA IP resin; lysis buffer with 0.5% NP-40; 90 min at 4°C"}, "[4]": {"biological_target": "HsARL2(Q70L)-3×HA (human) (UniProt P36404)", "test": "co-IP; HA-tagged HsARL2 or HsARL3 variants coexpressed with GFP-HsDAW1 in HEK293T; anti-HA IP resin; lysis buffer with 0.5% NP-40; 90 min at 4°C"}, "[5]": {"biological_target": "HsARL3(T31N)-3×HA (human) (UniProt P36405)", "test": "co-IP; HA-tagged HsARL2 or HsARL3 variants coexpressed with GFP-HsDAW1 in HEK293T; anti-HA IP resin; lysis buffer with 0.5% NP-40; 90 min at 4°C"}, "[6]": {"biological_target": "HsARL3(Q71L)-3×HA (human) (UniProt P36405)", "test": "co-IP; HA-tagged HsARL2 or HsARL3 variants coexpressed with GFP-HsDAW1 in HEK293T; anti-HA IP resin; lysis buffer with 0.5% NP-40; 90 min at 4°C"}, "HsARL2-3×HA (human)": {"biological_target": "HsARL2-3×HA (human) (UniProt P36404)", "test": "co-IP; HA-tagged HsARL2 or HsARL3 variants coexpressed with GFP-HsDAW1 in HEK293T; anti-HA IP resin; lysis buffer with 0.5% NP-40; 90 min at 4°C"}, "[7]": {"biological_target": "T4, GFP-HsDAW1(N143D) (human) (UniProt Q8N136)", "T4 sequence": "B1 chain with N143D", "test": "co-IP; GFP-HsDAW1 or its disease variants coexpressed with HA-HsIFT88, HsARL2-HA or HsARL3-HA in HEK293T; GFP-Trap; 1% NP-40 lysis buffer diluted to 0.5%; 90 min at 4°C"}, "[8]": {"biological_target": "T1, GFP-HsDAW1(S364T) (human)", "test": "co-IP; GFP-HsDAW1 or its disease variants coexpressed with HA-HsIFT88, HsARL2-HA or HsARL3-HA in HEK293T; GFP-Trap; 1% NP-40 lysis buffer diluted to 0.5%; 90 min at 4°C", "remark": "listed apart in the source"}, "GFP-HsDAW1 (human) [9]": {"biological_target": "T2, GFP-HsDAW1 (human)", "test": "co-IP; GFP-HsDAW1 or its disease variants coexpressed with HA-HsIFT88, HsARL2-HA or HsARL3-HA in HEK293T; GFP-Trap; 1% NP-40 lysis buffer diluted to 0.5%; 90 min at 4°C", "remark": "listed apart in the source"}, "[10]": {"biological_target": "T3, GFP-HsDAW1(W372C) (human)", "test": "co-IP; GFP-HsDAW1 or its disease variants coexpressed with HA-HsIFT88, HsARL2-HA or HsARL3-HA in HEK293T; GFP-Trap; 1% NP-40 lysis buffer diluted to 0.5%; 90 min at 4°C", "remark": "listed apart in the source"}}, "note": "Changes are numbered by the printed parent chain. Read-outs that look alike come from different tables or passages of the source. These are yes or no findings as the source states them, for the method shown. In cells and extracts the contact can be indirect. Some binding calls cover weakened binding; strength is not graded here. Where a sequence is shown, tags or fusion partners need not be part of it."}
{"molecule": "HsARL3-3×HA (from UniProt P36405 1-182)", "values": [{"measurement": "binding", "setting": "[1]", "result": "no binding"}, {"measurement": "binding", "setting": "GFP-HsDAW1 (human) [2]", "result": "binds"}, {"measurement": "binding", "setting": "[3]", "result": "no binding"}]}
{"molecule": "HsARL2-3×HA (from UniProt P36404 1-184)", "values": [{"measurement": "binding", "setting": "[1]", "result": "no binding"}, {"measurement": "binding", "setting": "GFP-HsDAW1 (human) [2]", "result": "binds"}, {"measurement": "binding", "setting": "[3]", "result": "no binding"}]}
{"molecule": "B1", "values": [{"measurement": "binding", "setting": "HsARL3-3×HA (human)", "result": "binds"}, {"measurement": "binding", "setting": "[4]", "result": "binds"}, {"measurement": "binding", "setting": "[5]", "result": "binds"}, {"measurement": "binding", "setting": "[6]", "result": "binds"}, {"measurement": "binding", "setting": "HsARL2-3×HA (human)", "result": "binds"}]}
{"molecule": "B2", "values": [{"measurement": "binding", "setting": "[7]", "result": "binds"}, {"measurement": "binding", "setting": "[8]", "result": "binds"}, {"measurement": "binding", "setting": "GFP-HsDAW1 (human) [9]", "result": "binds"}, {"measurement": "binding", "setting": "[10]", "result": "binds"}]}
